Consider 20 compounds from the supplement of paper PMC12582362.

Structures can show the parent of a compound that is named as a salt. In all, about 1,500 compounds went through this assay and about 30 (2%) showed activity.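 The calls were made as follows: active = robust z-score below -2; a few such results were not called.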 The list shows a part of the results.

The subject of the assay is optoTopBP1 Flp-In 293 T-REx (HEK293) cells. The assay can be described thus: light-induced TopBP1 condensate (nuclear foci) count, plate-normalised robust z-score vs non-control wells; higher = more TopBP1 condensates (negative = condensation inhibitor), active = hit call of the paper. As to conditions: 10 µM; incubation time 2 h.
For the compound `C[C@@H]1NC(=O)NC1=O` [Methylhydantoin-5-(L)], the “light-induced TopBP1 condensate (z-score)” value is inactive: -0.469.
Regarding `Cc1ccc(-c2ncc(Cl)cc2-c2ccc(S(C)(=O)=O)cc2)cn1` [Etoricoxib], the “light-induced TopBP1 condensate (z-score)” value is inactive: -0.0771.
With `CC1CCc2c(N3CCC(O)CC3)c(F)cc3c(=O)c(C(=O)O)cn1c23` (stereo not given) [Nadifloxacin] the figure was inactive: -0.152.
Under `Cc1cc(=O)n(-c2ccccc2)n1C` [Antipyrine] stands inactive: 0.827; under `Clc1ccc(COC(Cn2ccnc2)c2ccc(Cl)cc2Cl)c(Cl)c1` (stereo not given) [Miconazole], inactive: 0.0353; under `NC12CC3CC(CC(C3)C1)C2` [Adamantamine fumarate], inactive: 0.749.
Under `CN(C)[C@@H]1C(O)=C(C(N)=O)C(=O)[C@@]2(O)C(O)=C3C(=O)c4c(O)ccc(Cl)c4[C@@H](O)[C@H]3C[C@@H]12` [Demeclocycline hydrochloride] stands inactive: 0.813; under `O=C1c2ccccc2S(=O)(=O)N1CCCCN1CCN(c2ncccn2)CC1` [Ipsapirone], inactive: -0.2; under `Cn1c([N+](=O)[O-])cnc1COC(N)=O` [Ronidazole], inactive: -0.788.
On to `COc1ccc(C(=O)NCc2ccc(OCCN(C)C)cc2)cc1OC` [Itopride], for which the “light-induced TopBP1 condensate (z-score)” value is inactive: -0.155.
Take `N[C@@H](C(=O)N[C@@H]1C(=O)N2C(C(=O)O)=C(Cl)CS[C@H]12)c1ccccc1` [Cefaclor hydrate]: the “light-induced TopBP1 condensate (z-score)” value is inactive: -0.181.
Under `CC(Oc1ccccc1)C(=O)N[C@@H]1C(=O)N2[C@@H]1SC(C)(C)[C@@H]2C(=O)O` (stereo not given in full) [Phenethicillin potassium salt] stands inactive: 0.422; under `Brc1c(NC2=NCCN2)ccc2nccnc12` [Brimonidine L-Tartrate], inactive: -1.88; under `CN(C)CCOC(=O)COc1ccc(Cl)cc1` [Meclofenoxate hydrochloride], inactive: -0.223.
Regarding `CCCc1nc(C(C)(C)O)c(C(=O)O)n1Cc1ccc(-c2ccccc2-c2nnn[nH]2)cc1` [Olmesartan], the “light-induced TopBP1 condensate (z-score)” value is inactive: 0.485.
With `N=C(N)N/N=C/c1c(Cl)cccc1Cl` [Guanabenz acetate] the figure was inactive: 0.547.
As to `Cc1ccc2c(Cl)cc(Cl)c(O)c2n1` [Chlorquinaldol], the “light-induced TopBP1 condensate (z-score)” value is active: -9.09.
With `OC(CCN1CCCCC1)(c1ccccc1)C1CCCCC1` (stereo not given) [Trihexyphenidyl-D,L Hydrochloride] the figure was inactive: 0.636.
Under `CC1(C)S[C@@H]2[C@H](NC(=O)C(c3ccccc3)S(=O)(=O)O)C(=O)N2[C@H]1C(=O)O` (stereo not given in full) [Sulbenicillin sodium salt] stands inactive: 0.523; under `CCC(=O)OCC(=O)[C@@]1(OC(=O)CC)[C@H](C)C[C@H]2[C@H]3[C@H]([C@@H](O)C[C@@]21C)[C@@]1(C)C=CC(=O)C=C1C[C@H]3Cl` [Alclometasone dipropionate], inactive: 0.331.
